{"source": "paper PMC4336329", "about": "(PLoS ONE, 2015)", "note": "About 14,000 (4.5%) of roughly 310,000 compounds showed an effect of 50% or more. Effects have a minus sign here. This is one part of the list.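 Note: peak tail current of the secondary pulse compared with the same well before compound.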"}
{"target": "human ether-à-go-go-related gene (hERG) potassium channel (human, UniProt Q12809)", "sequence (Q12809 whole entry, looked up)": "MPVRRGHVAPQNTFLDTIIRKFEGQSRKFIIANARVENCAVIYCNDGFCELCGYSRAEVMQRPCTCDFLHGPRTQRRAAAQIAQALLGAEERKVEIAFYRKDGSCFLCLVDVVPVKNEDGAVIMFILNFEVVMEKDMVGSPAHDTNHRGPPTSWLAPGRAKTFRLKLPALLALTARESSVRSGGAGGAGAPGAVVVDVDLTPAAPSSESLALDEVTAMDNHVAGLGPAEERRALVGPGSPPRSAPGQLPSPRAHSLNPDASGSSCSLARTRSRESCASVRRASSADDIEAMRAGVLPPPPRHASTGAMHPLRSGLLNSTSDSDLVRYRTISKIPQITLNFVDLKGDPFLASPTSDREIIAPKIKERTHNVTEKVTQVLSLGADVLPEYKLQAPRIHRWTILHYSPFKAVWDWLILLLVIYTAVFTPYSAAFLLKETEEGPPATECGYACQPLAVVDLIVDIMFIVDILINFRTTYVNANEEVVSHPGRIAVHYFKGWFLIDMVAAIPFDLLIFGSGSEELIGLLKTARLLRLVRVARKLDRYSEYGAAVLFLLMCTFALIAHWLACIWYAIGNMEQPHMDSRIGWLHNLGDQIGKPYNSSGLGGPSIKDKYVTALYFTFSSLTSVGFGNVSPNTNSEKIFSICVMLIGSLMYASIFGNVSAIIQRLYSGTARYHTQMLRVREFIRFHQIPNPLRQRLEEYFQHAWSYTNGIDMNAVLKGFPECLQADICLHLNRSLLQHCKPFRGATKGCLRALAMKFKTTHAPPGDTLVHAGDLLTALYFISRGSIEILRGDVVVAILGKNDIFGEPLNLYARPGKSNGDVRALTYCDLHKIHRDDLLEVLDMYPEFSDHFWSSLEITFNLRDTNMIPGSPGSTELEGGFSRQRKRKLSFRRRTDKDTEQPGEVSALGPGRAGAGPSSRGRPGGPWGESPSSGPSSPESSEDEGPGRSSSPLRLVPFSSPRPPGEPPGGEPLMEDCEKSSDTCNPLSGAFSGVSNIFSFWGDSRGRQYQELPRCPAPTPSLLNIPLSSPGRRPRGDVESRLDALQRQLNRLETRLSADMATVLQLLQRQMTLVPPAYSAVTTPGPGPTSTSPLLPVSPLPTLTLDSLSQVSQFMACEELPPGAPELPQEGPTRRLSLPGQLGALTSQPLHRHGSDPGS", "assay": "primary screen, population patch clamp on CHO cells stably expressing hERG", "units": {"hERG current change (%, negative = inhibition) at 10uM": "%"}}
{"smiles": "COc1cccc(CNCCc2c[nH]c3ccccc23)c1OCc1ccccc1F.Cl", "hERG current change (%, negative = inhibition) at 10uM": -55.8}
{"smiles": "O=C(CCCNS(=O)(=O)c1cccs1)N1CCc2ccccc2C1", "hERG current change (%, negative = inhibition) at 10uM": -18.4}
{"smiles": "CN1CC(=O)N/C1=N\\C(=O)Nc1ccc2c(c1)N(C)C(=O)CS2", "hERG current change (%, negative = inhibition) at 10uM": -19.7}
{"smiles": "COCc1c(C(=O)N/N=C\\c2cccnc2)nnn1-c1nonc1N", "hERG current change (%, negative = inhibition) at 10uM": 5.65}
{"smiles": "Cc1cccc(C)c1NC(=O)N1CC=CCC1", "hERG current change (%, negative = inhibition) at 10uM": 12.8}
{"smiles": "COc1ccc(-c2[nH]ncc2-c2cscn2)c(O)c1", "hERG current change (%, negative = inhibition) at 10uM": 11.5}
{"smiles": "COc1ccc(NC(=S)Nc2cnc3ccccc3c2)c(OC)c1", "hERG current change (%, negative = inhibition) at 10uM": -0.946}
{"smiles": "CCCc1[nH]n(-c2ccc(F)cc2)c(=O)c1C=Nc1ccc(C)cc1", "hERG current change (%, negative = inhibition) at 10uM": 4.95}
{"smiles": "COC(=O)Cc1csc(Nc2ccccc2)n1", "hERG current change (%, negative = inhibition) at 10uM": -4.33}
{"smiles": "COc1ccc(OC)c(C2C(C#N)=C(N)Oc3c2c(C)nn3-c2cccc(Cl)c2)c1", "note": "(centres unmarked)", "hERG current change (%, negative = inhibition) at 10uM": 1.48}
{"smiles": "Cc1nccn1-c1ncnc2sc3c(c12)CCCC3", "hERG current change (%, negative = inhibition) at 10uM": -8.25}
{"smiles": "Cn1nnnc1SCC(=O)Nc1nc2ccccc2s1", "hERG current change (%, negative = inhibition) at 10uM": 13.1}
{"smiles": "O=C(Cn1cc(SCc2ccc(F)cc2)c2ccccc21)N1CCOCC1", "hERG current change (%, negative = inhibition) at 10uM": -29.9}
{"smiles": "Cc1cc(C(=O)Nc2ccc(N3CCOCC3)c(Cl)c2)c(C)o1", "hERG current change (%, negative = inhibition) at 10uM": 1.11}
{"smiles": "C=C(C)C(=O)Nc1cccc(C2=NOC3(C2)C[C@@H](C(N)=O)N(C(=O)/C=C/C=C/C)C3)c1", "note": "(some centres unmarked)", "hERG current change (%, negative = inhibition) at 10uM": -1.74}
{"smiles": "Cn1cnc([N+](=O)[O-])c1NCc1ccccc1", "hERG current change (%, negative = inhibition) at 10uM": 10.3}
{"smiles": "CC(OC(=O)C1CCN(c2ccc(C(F)(F)F)cn2)CC1)C(=O)Nc1ccc(S(N)(=O)=O)cc1", "note": "(centres unmarked)", "hERG current change (%, negative = inhibition) at 10uM": 14.2}
{"smiles": "c1c2c(cc3sc(N4CCCCC4)nc13)OCO2", "hERG current change (%, negative = inhibition) at 10uM": 11.3}
{"smiles": "O=S(=O)(NCC(c1cccnc1)N1CCN(c2ccc(F)cc2)CC1)c1cc(F)ccc1F", "note": "(centres unmarked)", "hERG current change (%, negative = inhibition) at 10uM": -65.8}
{"smiles": "CS/C(=N\\NC(N)=O)c1ccccc1", "hERG current change (%, negative = inhibition) at 10uM": -8.24}
{"smiles": "Cc1ccc2c(=O)cc(C(F)F)oc2c1", "hERG current change (%, negative = inhibition) at 10uM": -4.38}
{"smiles": "O=C(Oc1ccc2c(c1)O/C(=C\\c1ccncc1)C2=O)c1ccccc1", "hERG current change (%, negative = inhibition) at 10uM": 4.73}
{"smiles": "Cc1nn(CCCC(=O)NCCc2ccc(Cl)cc2)c(=O)c2nn(-c3ccccc3)c(C)c12", "hERG current change (%, negative = inhibition) at 10uM": 12.2}
{"smiles": "C=CCC(=O)N1CCCC(CO)(Cc2ccc(F)cc2F)C1", "note": "(centres unmarked)", "hERG current change (%, negative = inhibition) at 10uM": 0.892}
{"smiles": "Cc1cc(=O)n2nc(N3CCCC(C(=O)NC4CCCCC4C)C3)sc2n1", "note": "(centres unmarked)", "hERG current change (%, negative = inhibition) at 10uM": 9.32}
{"smiles": "Cc1cc(N=Cc2c(O)n(-c3cccc(C(F)(F)F)c3)c(=O)c3ccccc23)no1", "hERG current change (%, negative = inhibition) at 10uM": -0.361}
{"smiles": "O=[N+]([O-])c1ccc(N2CCN(S(=O)(=O)c3ccccc3)CC2)cc1", "hERG current change (%, negative = inhibition) at 10uM": -46.9}
{"smiles": "O=C(COc1ccccc1F)Nc1ccc2c(c1)OCCO2", "hERG current change (%, negative = inhibition) at 10uM": 16.8}
{"smiles": "CC(C)[C@H](N)c1nnc(SCC(=O)c2ccc(Cl)cc2)o1.Cl", "hERG current change (%, negative = inhibition) at 10uM": -14.2}
{"smiles": "CC(=O)OC1N=C(c2ccccc2)c2cc(C)ccc2NC1=O", "note": "(centres unmarked)", "hERG current change (%, negative = inhibition) at 10uM": -11.5}
{"smiles": "O=C1NC(CCc2ccccc2)C(=O)N1CCOc1ccccc1", "note": "(centres unmarked)", "hERG current change (%, negative = inhibition) at 10uM": 8.06}
{"smiles": "Cl.Fc1cccc(Cl)c1CNCCCSc1ncccn1", "hERG current change (%, negative = inhibition) at 10uM": 1.34}
{"smiles": "Oc1ccc(Cl)cc1CNc1cccc2cccnc12", "hERG current change (%, negative = inhibition) at 10uM": 28.3}
{"smiles": "COc1ccccc1CCC(=O)OCC(=O)Nc1ccc2[nH]c(=O)[nH]c2c1", "hERG current change (%, negative = inhibition) at 10uM": 6.56}
{"smiles": "O=C(c1ccccc1)c1ccc(C(=O)N2CCN(c3ccc(F)cc3)CC2)o1", "hERG current change (%, negative = inhibition) at 10uM": -78.4}
{"smiles": "O=C(O)Cn1cc(/C=C2\\C(=O)NC(=O)N(c3ccc(Br)cc3)C2=O)c2ccccc21", "hERG current change (%, negative = inhibition) at 10uM": 18.2}
{"smiles": "COc1ccccc1Nc1ncnc2sccc12", "hERG current change (%, negative = inhibition) at 10uM": 13.3}
{"smiles": "CC(C)C(=O)NCCc1nc2ccccc2n1CCCOc1ccc(Cl)cc1", "hERG current change (%, negative = inhibition) at 10uM": -41.7}
{"smiles": "COc1ccc(-c2cc(C(=O)Nc3ccccc3O)c3ccccc3n2)cc1OC", "hERG current change (%, negative = inhibition) at 10uM": 5.99}
{"smiles": "C/C=C(/C)C(=O)O[C@@H]1[C@H](OC(=O)C=C(C)C)c2c(ccc3ccc(=O)oc23)OC1(C)C", "hERG current change (%, negative = inhibition) at 10uM": -0.258}
{"smiles": "O=C(NCC1CCCO1)c1ccc(CS(=O)(=O)c2c(Cl)cccc2Cl)o1", "note": "(centres unmarked)", "hERG current change (%, negative = inhibition) at 10uM": -3.91}
{"smiles": "COc1ccc(CCCNC(=O)C2CCC(=O)N(CCCN3CCCC3=O)C2)cc1", "note": "(centres unmarked)", "hERG current change (%, negative = inhibition) at 10uM": 18.9}
{"smiles": "O=C(CN(c1cccc(C(F)(F)F)c1)S(=O)(=O)c1ccc(Cl)c([N+](=O)[O-])c1)NCc1ccccc1Cl", "hERG current change (%, negative = inhibition) at 10uM": -9.63}
{"smiles": "NC(=O)c1ncn([C@@H]2O[C@H](CO)[C@@H](O)[C@H]2O)n1", "hERG current change (%, negative = inhibition) at 10uM": 34}
